Consider 115 sequences from the BET-seq Pho4 binding data (Le et al. 2018).

The list shows a part of the results. Values were computed here from the reads of four pooled replicates and scatter widely.

For this experiment, the target named is T1, Pho4 (S. cerevisiae) (UniProt P07270).
T1 sequence: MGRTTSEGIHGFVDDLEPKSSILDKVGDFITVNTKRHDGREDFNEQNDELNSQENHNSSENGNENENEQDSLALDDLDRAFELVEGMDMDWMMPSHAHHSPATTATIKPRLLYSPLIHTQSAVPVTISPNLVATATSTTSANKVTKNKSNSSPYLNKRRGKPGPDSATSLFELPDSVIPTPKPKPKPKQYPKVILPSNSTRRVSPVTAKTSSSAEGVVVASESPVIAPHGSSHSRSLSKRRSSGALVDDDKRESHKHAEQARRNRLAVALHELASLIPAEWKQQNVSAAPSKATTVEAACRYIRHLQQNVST
Put plainly: relative binding free energy (BET-seq); higher = weaker binding. The note with it: reference: library average.
For TCTCACACGTGATTGG, the “relative binding free energy” value came out at 0.43 kcal/mol.
The same measure for CTCTACACGTGGTTTT: 0.18 kcal/mol.
Take AGGTGCACGTGAGTTT: the “relative binding free energy” value is 0.16 kcal/mol.
Take TGGAACACGTGTGATA: the “relative binding free energy” value stood at 0.23 kcal/mol.
Then ACGGGCACGTGGTTGG, with -0.13 kcal/mol.
The same measure for CTGGGCACGTGTCTTT: -0.06 kcal/mol.
Then GGTAACACGTGGTTAT, with -0.05 kcal/mol; and GGGTTCACGTGATGAA, with 0.32 kcal/mol.
With GTGGTCACGTGAGCAG, the “relative binding free energy” value was determined as 0.38 kcal/mol.
Then TGTATCACGTGGGGGG, with -0.04 kcal/mol.
The same measure for AGGTACACGTGGTGAT: 0.02 kcal/mol.
Turning to TGGAACACGTGGCGGT, the “relative binding free energy” value is -0.12 kcal/mol.
With TATTTCACGTGGTTCA, the “relative binding free energy” value was 0.19 kcal/mol.
GGTGGCACGTGCTAGT: the “relative binding free energy” value was -0.24 kcal/mol.
Then TTTATCACGTGTGGCG, with 0.27 kcal/mol.
Then TTGGTCACGTGAAAGA, with 0.35 kcal/mol; and TGTATCACGTGGCGTA, with -0.11 kcal/mol; and TTTGCCACGTGGCGGA, with -0.1 kcal/mol.
Then AGGATCACGTGACGGT, with 0.24 kcal/mol; and AGTGTCACGTGGTGAC, with 0.05 kcal/mol.
Consider AGGTTCACGTGACAGG, for which the “relative binding free energy” value came out at 0.22 kcal/mol.
TCTTACACGTGGAGTG: the “relative binding free energy” value is -0.07 kcal/mol.
Consider GTTTACACGTGTGCAT, for which the “relative binding free energy” value was 0.13 kcal/mol.
The same measure for AGTGGCACGTGGTATC: -0.28 kcal/mol; for GACTGCACGTGGTGGC: -0.03 kcal/mol.
Consider TACGGCACGTGTTTGA, for which the “relative binding free energy” value came out at 0 kcal/mol.
The same measure for GGTTTCACGTGGAGAA: 0.06 kcal/mol; for TGTGTCACGTGGTGCG: -0.03 kcal/mol.
Then CTTTGCACGTGGAGGG, with -0.14 kcal/mol.
On to AGGAGCACGTGATGCA, for which the “relative binding free energy” value was determined as 0.11 kcal/mol.
As to TTGCACACGTGGATGT, the “relative binding free energy” value worked out at 0.06 kcal/mol.
Consider TAATGCACGTGTTTAT, for which the “relative binding free energy” value is -0.11 kcal/mol.
TTGCTCACGTGAGTTT: the “relative binding free energy” value turned out to be 0.43 kcal/mol.
Then TGCTTCACGTGAGGGA, with 0.38 kcal/mol; and AGACGCACGTGGGAAG, with -0.03 kcal/mol; and AGTTACACGTGAGTGG, with 0.31 kcal/mol.
The same measure for TCTGGCACGTGTATAA: -0.01 kcal/mol.
Then TAAATCACGTGTGTTA, with 0.13 kcal/mol; and GTTGTCACGTGGCAGA, with 0.13 kcal/mol.
On to AAGTTCACGTGGGATC, for which the “relative binding free energy” value came to 0.35 kcal/mol.
Then TGCGGCACGTGAAGAT, with 0.14 kcal/mol; and TGAATCACGTGCGTGG, with 0.02 kcal/mol; and TGATACACGTGGTGGC, with -0.1 kcal/mol.
TAGTGCACGTGAAGAG: the “relative binding free energy” value was determined as 0.08 kcal/mol.
Then GTTTTCACGTGTTGGA, with 0.33 kcal/mol; and TGCTTCACGTGATGGA, with 0.3 kcal/mol; and TGCGGCACGTGGTATG, with -0.14 kcal/mol.
Regarding TGGACCACGTGTGATT, the “relative binding free energy” value was determined as 0.02 kcal/mol.
For GGGTGCACGTGCGTTC, the “relative binding free energy” value was -0.04 kcal/mol.
Regarding TTTGACACGTGGATAA, the “relative binding free energy” value was -0.02 kcal/mol.
The same measure for TTGGACACGTGACAGG: 0.12 kcal/mol.
Consider GAATGCACGTGGTCGG, for which the “relative binding free energy” value is -0.12 kcal/mol.
Consider GAGTACACGTGTGGGG, for which the “relative binding free energy” value was found to be 0.17 kcal/mol.
For GGGAGCACGTGTGATA, the “relative binding free energy” value is 0.1 kcal/mol.
Turning to ACATGCACGTGTTGGG, the “relative binding free energy” value is -0.04 kcal/mol.
In the case of AGTAACACGTGGGATG, the “relative binding free energy” value was -0.12 kcal/mol.
With TGTTCCACGTGGGGTG, the “relative binding free energy” value is -0.03 kcal/mol.
As for TGTGCCACGTGCGTGA, the “relative binding free energy” value was -0.2 kcal/mol.
For CGGGGCACGTGAGTCG, the “relative binding free energy” value was found to be 0.09 kcal/mol.
Regarding AGTGGCACGTGTGGAT, the “relative binding free energy” value is 0 kcal/mol.
The same measure for GCTATCACGTGTGAGG: 0.18 kcal/mol; for TGAATCACGTGAATGG: 0.25 kcal/mol; for TACTTCACGTGTAGTT: 0.23 kcal/mol.
TAGGTCACGTGCAGAT: the “relative binding free energy” value is 0.11 kcal/mol.
With TTCTACACGTGCTGTT, the “relative binding free energy” value turned out to be 0.15 kcal/mol.
Then TGTTACACGTGTTATG, with 0.12 kcal/mol.
Regarding TCGAGCACGTGGGGTA, the “relative binding free energy” value is -0.16 kcal/mol.
The same measure for CGGGCCACGTGGGTGA: -0.26 kcal/mol; for GATGGCACGTGCGGCG: -0.16 kcal/mol; for AGTAACACGTGGGAAT: -0.03 kcal/mol.
Then TTGGCCACGTGGAATG, with -0.04 kcal/mol.
Regarding GAAAGCACGTGGGTTT, the “relative binding free energy” value was -0.14 kcal/mol.
Turning to GGTCCCACGTGGGGGA, the “relative binding free energy” value was -0.32 kcal/mol.
Then GATAGCACGTGACGGG, with 0.18 kcal/mol; and AGGGTCACGTGCGTCT, with -0.06 kcal/mol; and CAGATCACGTGGTGTT, with 0.05 kcal/mol.
Then GTTGACACGTGATTGA, with 0.11 kcal/mol.
On to CTTAACACGTGCGGGT, for which the “relative binding free energy” value was -0.01 kcal/mol.
Take GTGGTCACGTGGTTCT: the “relative binding free energy” value came out at 0.19 kcal/mol.
Then GTGCGCACGTGTTATT, with -0.14 kcal/mol; and GGGGGCACGTGCAAAT, with -0.06 kcal/mol; and GTGGGCACGTGTGAGG, with -0.01 kcal/mol.
As to ACGGTCACGTGGGTTC, the “relative binding free energy” value is -0.02 kcal/mol.
Then CTTTACACGTGATAGT, with 0.24 kcal/mol.
GGTGTCACGTGAATGG: the “relative binding free energy” value was 0.39 kcal/mol.
The same measure for CTTTTCACGTGAGGTC: 0.42 kcal/mol.
Regarding CTGGCCACGTGGGTGA, the “relative binding free energy” value is -0.2 kcal/mol.
The same measure for TTAGGCACGTGGATCA: -0.03 kcal/mol; for AGGACCACGTGGGGCG: -0.15 kcal/mol; for GCAAGCACGTGAGGTT: 0.28 kcal/mol.
The same measure for TTAGTCACGTGATTGG: 0.36 kcal/mol; for GGGGGCACGTGGACTG: -0.03 kcal/mol; for TTAAACACGTGATTAT: 0.15 kcal/mol.
The same measure for AGGTACACGTGGGTCG: 0.01 kcal/mol; for TTTCTCACGTGGTGTA: 0.11 kcal/mol.
In the case of CTCTGCACGTGGTGTT, the “relative binding free energy” value is -0.16 kcal/mol.
The same measure for AGGGGCACGTGATCGT: -0.09 kcal/mol; for AAGTGCACGTGGAGTA: -0.11 kcal/mol.
In the case of TGTGTCACGTGGCTGT, the “relative binding free energy” value is -0.09 kcal/mol.
Then TGCTACACGTGAATGT, with 0.4 kcal/mol.
The same measure for GTAAACACGTGGTGGT: -0.01 kcal/mol; for GTTTGCACGTGCGATT: -0.06 kcal/mol.
As for AGGTGCACGTGCTTCG, the “relative binding free energy” value is -0.12 kcal/mol.
The same measure for TTCATCACGTGTTGTT: 0.16 kcal/mol; for GATTGCACGTGGAGAG: 0.18 kcal/mol.
In the case of CGTTTCACGTGGCAGG, the “relative binding free energy” value turned out to be 0.21 kcal/mol.
The same measure for GCTGTCACGTGGATGA: 0.21 kcal/mol.
Then GGAGTCACGTGTAAAG, with 0.26 kcal/mol; and ATTTTCACGTGTGAAA, with 0.13 kcal/mol; and CGGATCACGTGTTAGT, with 0.13 kcal/mol.
As to GAATGCACGTGTAGCG, the “relative binding free energy” value was found to be 0.12 kcal/mol.
The same measure for AGGTACACGTGGGCGC: -0.18 kcal/mol; for TATTACACGTGATGTC: 0.4 kcal/mol.
Then TTATCCACGTGTTTCT, with 0.09 kcal/mol; and CGCAGCACGTGGTGGC, with -0.01 kcal/mol.
